# Data from PubChem BioAssay AID1865 (National Center for Advancing Translational Sciences (NCATS), 2009).
# Where “and” joins values, the source holds several entries; their conditions need not be identical. Equal values may be shown once. Among all 280,000 compounds or so, about 540 (0.19%) were called active. The shares of active, inactive and inconclusive entries below differ from those in the screen. Calls come from the whole dose curve; as a rule, active = well fitted activation curve with a large enough effect; inconclusive = small, poorly fitted or top-dose-only effect; inactive = flat fitted curve, though single readings scatter. A potency beside an inconclusive call is a rough fit, not a confirmed value.
# Assay: Quantitative High-Throughput Screen for Regulators of Epigenetic Control; note: nearly all actives have a fitted effect of over 60% in size; for GFP activation: % of control where 0% means no effect
# Conditions: murine LDR cells, GFP reporter derepression, 30 h; GFP activation: at 53.9 µM (top of the series)
# Procedure, shortened: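 Readout is the number of GFP-expressing murine LDR cells, counted by cytometry following washing. Cells were treated with compound for 30 h at 37 C; the stably integrated CMV-GFP locus is normally silent.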
# Potency is the fitted concentration of half-maximal effect; tags give direction and shape of the fitted curve.
SMILES,Potency,GFP activation
Oc1ccc(F)c2cccnc12,"inconclusive: 25.1 µM [activator, single point]",
CCn1nc(-c2ccccc2)c2nc3ccccc3nc21,,inactive: 18.1%
CN(C)c1ccc(-c2nc(NCc3cccnc3)c3ccccc3n2)cc1,"inconclusive: 3.16 µM [activator, full curve]",
COC(=O)CC1C(=O)NCCN1C(=O)CSc1nc2ccccc2s1 (centres undefined),,inactive: -0.306%
O=C(Nn1c(C2CCCCC2)nc2ccccc2c1=O)c1ccc(Cl)c([N+](=O)[O-])c1,,inactive: -1.77%
CCCCCCCC/C=C\CCCCCCCC(=O)NCCc1ccc(O)c(O)c1,"inconclusive: 35.5 µM [activator, single point] and inconclusive: 631 nM [activator, single point] and inconclusive: 5.62 µM [activator, single point]",
NC(=O)CC(NC(=O)c1ccc(Br)cc1)c1ccc(NCCc2ccc(F)cc2)c([N+](=O)[O-])c1 (centres undefined),"inconclusive: 31.6 µM [activator, single point]",
COc1ccc2c(c1)c(=O)c(C(=O)c1ccccc1)cn2CC(=O)Nc1ccc2c(c1)OCCO2,,inactive: -0.734%
Brc1ccc(Cn2c(-c3cncs3)nc3ccccc32)cc1,"inconclusive: 31.6 µM [activator, single point]",
COCCNC(=O)c1ccc2c(=O)n(CCc3ccccc3)c(SCC(=O)CC(=O)OC)nc2c1,,inactive: 1.56%
CCc1ccc(CNC(=O)c2c3c(nc4ccccc24)C(=O)N(C2CCCCC2)C3)cc1,,inactive: 0%
CN1C(=O)/C(=C/c2cn(CC(=O)NCc3ccco3)c3ccccc23)NC1=S,"inconclusive: 22.4 µM [activator, single point]",
Cc1nc(-c2nc(-c3c(C(=O)NN)noc3C)cs2)cs1,"inconclusive: 17.8 µM [activator, single point]",
CCC(C(=O)NC(C)(C)C)N(C(=O)Cn1nnc(-c2cccs2)n1)c1cnc2ccccc2c1 (centres undefined),"inconclusive: 14.1 µM [activator, single point]",
COc1cn(CC(=O)Nc2ccc(F)cc2)c(CN2CCCCC2)cc1=O,,inactive: -1.3%
Cc1ccc(S(=O)(=O)N2CCN(C(=O)Cc3ccccc3)CC2)cc1,"inconclusive: 35.5 µM [activator, single point]",
CCSc1nnc(NC(=O)c2ccccn2)s1,"inconclusive: 31.6 µM [activator, single point]",
CC(C)(C)OC(=O)N1CCC(c2c(C(=O)NCc3ccc(F)cc3)cnn2-c2ccc(F)cc2)CC1,,inactive: 1.06%
O=C(NC(=S)Nc1ccc(Cl)cn1)c1cccs1,,inactive: -1.15%
Nc1sc2c(c1C(=O)c1ccccc1)CCCC2,,inactive: -1.71%
CN1N=C2c3ccccc3CCC2C1c1ccc(F)cc1 (centres undefined),,inactive: 4.34%
COc1ccnc(CSC(N)=Nc2cccc(C(F)(F)F)c2)c1,"inconclusive: 12.6 µM [activator, partial curve]",

SMILES,Potency,GFP activation
Cc1ccc(Cl)cc1NC(=O)COC(=O)c1ccc(COc2ccc3c(C)cc(=O)oc3c2)cc1,"inconclusive: 10 µM [activator, partial curve]",
Nc1ccccc1Oc1c(F)c(F)c(Oc2ccccc2N)c(F)c1F,"inconclusive: 35.5 µM [activator, single point]",
CSc1ncc(Cl)c(C(=O)Nc2ccc(S(=O)(=O)N3CCC(C)CC3)cc2)n1,,inactive: 0%
Cc1ccc(N=C/C(C(=O)C(F)(F)F)=C(\O)c2ccco2)cc1Cl,"inconclusive: 31.6 µM [activator, single point]",
COc1cc2c(cc1O)C(SC)=NC(C)(C)C2,"inconclusive: 31.6 µM [activator, single point]",
C/C(=N/NC(=S)Nc1cccc(C)c1)c1cccc([N+](=O)[O-])c1,"inconclusive: 3.98 µM [activator, single point]",
Cc1ccc(C)c(NC(=O)Cn2cc(C(=O)C3CCCCC3)c3ccccc32)c1,"inconclusive: 31.6 µM [activator, single point]",
CCOc1ccc(NC(=O)N2CC=C(c3c[nH]c4ccccc34)CC2)cc1,"inconclusive: 28.2 µM [activator, single point]",
COc1ccc(/C=N/NC(=O)c2cc(-c3ccc4c(c3)OCO4)n[nH]2)cc1OC,"inconclusive: 5.62 µM [activator, single point]",
Cc1[nH]n(-c2ncc(-c3ccccc3)s2)c(=O)c1C(c1ccc(Br)cc1)C(C#N)C#N (centres undefined),"inconclusive: 35.5 µM [activator, single point]",
COc1ccccc1CNc1nc2c(S(=O)(=O)c3ccccc3)nnn2c2ccc(Cl)cc12,,inactive: 2.18%
O=C(CCN1C(=O)/C(=C/c2cccs2)SC1=S)Nc1ccccn1,"inconclusive: 31.6 µM [activator, single point]",
N#CC(C#N)=C1C=C2C=C(N3CCOCC3)CCC2CC1 (centres undefined),active: 10 µM,
Cc1ccc(C(C[N+](=O)[O-])c2c(C)cc3ccccn23)cc1 (centres undefined),"inconclusive: 28.2 µM [activator, single point]",
C=CC[C@@](C(C)=O)(C(=O)OC)C(NC(=O)OC(C)(C)C)c1ccccc1 (some centres undefined),,inactive: -1.14%
CCc1ccc(S(=O)(=O)c2cn(CC)c3cc(N4CCCCC4)c(F)cc3c2=O)cc1,,inactive: -1.23%
COc1cccc(NC(=O)c2cc3c(=O)n4ccccc4nc3n(CC(C)C)c2=N)c1,"inconclusive: 3.55 µM [activator, single point]",
COc1ccc(/C(C)=N/Nc2ncc(Cl)cc2Cl)c(O)c1,"inconclusive: 12.6 µM [activator, partial curve]",
O=C(N/N=C/c1ccccn1)c1[nH]c2ccc([N+](=O)[O-])cc2c1-c1ccccc1,,inactive: 25.4%
Cc1cnc(NC(=O)c2ccccn2)s1,"inconclusive: 31.6 µM [activator, single point]",
O=C(Cn1c(=O)n2nc(-c3cccc(F)c3)nc2c2ccccc21)N1CCN(c2ccc(F)cc2)CC1,,inactive: -0.897%
Cc1c(C(=O)N/N=C/c2ccc(N(C)C)cc2)[nH]c2ccc(Cl)cc12,"inconclusive: 15.8 µM [activator, single point]",
